Data published in publication PMC12329532 (2025).

How the values were obtained:
Assay in all cases: FP
[1] = target: TC-GAPDH E138R + D141R, purified (human, UniProt P04406 1-335, E138R | D141R)
TC-GAPDH E138R, purified = TC-GAPDH E138R, purified (human, UniProt P04406 1-335, E138R)
TC-GAPDH D141R, purified = TC-GAPDH D141R, purified (human, UniProt P04406 1-335, D141R)
[2] = target: human recombinant TC-GAPDH (GAPDH with a tetra-Cys insertion sequence near its heme binding site), wild type, … (human, UniProt P04406 1-335)

UniProt P04406, sequence (P04406 2-335): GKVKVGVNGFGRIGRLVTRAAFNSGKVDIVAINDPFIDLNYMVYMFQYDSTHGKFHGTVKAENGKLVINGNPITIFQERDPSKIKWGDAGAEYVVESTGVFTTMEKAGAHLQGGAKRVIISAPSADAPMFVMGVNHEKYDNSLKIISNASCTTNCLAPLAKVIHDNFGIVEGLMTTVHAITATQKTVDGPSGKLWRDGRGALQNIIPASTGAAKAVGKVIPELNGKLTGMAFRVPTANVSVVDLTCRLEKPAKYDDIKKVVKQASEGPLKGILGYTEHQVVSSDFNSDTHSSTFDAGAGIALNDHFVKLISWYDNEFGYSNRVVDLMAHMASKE

Kd [1]: 3390 nM | Kd (TC-GAPDH E138R, purified): 1660 nM | Kd (TC-GAPDH D141R, purified): 3450 nM | Kd [2]: 1790 nM
B1: N-terminally His6-tagged human IDO1 (indoleamine 2,3-dioxygenase 1), purified apo-IDO1 (enzyme)
chain: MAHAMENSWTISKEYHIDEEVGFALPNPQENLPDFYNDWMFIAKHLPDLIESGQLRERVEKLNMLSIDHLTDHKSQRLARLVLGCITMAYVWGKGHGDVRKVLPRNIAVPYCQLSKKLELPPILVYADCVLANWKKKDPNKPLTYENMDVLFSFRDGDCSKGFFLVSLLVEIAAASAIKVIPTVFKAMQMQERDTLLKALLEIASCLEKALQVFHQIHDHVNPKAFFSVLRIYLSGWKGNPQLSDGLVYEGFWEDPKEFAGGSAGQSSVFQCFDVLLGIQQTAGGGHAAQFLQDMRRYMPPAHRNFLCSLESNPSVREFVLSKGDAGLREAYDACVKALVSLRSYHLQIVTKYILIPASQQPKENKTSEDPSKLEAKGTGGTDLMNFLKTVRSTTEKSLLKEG
modifications: Alexa Fluor 488 on Cys groups (in the fluorescence polarisation assay only)
